Test results taken from PubChem BioAssay AID1159614 (National Center for Advancing Translational Sciences (NCATS), 2016).
Hit rate of the full screen: of about 45,000 compounds, about 65 (0.1%) were called active. Calls come from the whole dose curve; as a rule, active = well fitted activation curve with a large enough effect; inconclusive = small, poorly fitted or top-dose-only effect; inactive = no such curve, though single readings can be large or run the other way. Some of the results follow. Peptide text beside a SMILES is read from it.

Each compound was assayed against Galactocerebrosidase (Homo sapiens) (UniProt P54803) (assay: A Novel Cell-Based Assay to Identify Small Molecules for B -Galactocerebrosidase). Conditions: 145M-Twi-hGALC-G270D cells (Twitcher mouse brain line with human GALC G270D), HMU-beta-Gal fluorescence, 48 h; series mostly up to 57.5 µM; activation: at the top concentration.
Outline: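 Fluorescence readout: HMU-β-gal cleavage by mutant GALC (0.1 mM final, citrate/phosphate pH 5.2 with 1 mg/mL taurocholate), stopped with carbonate/bicarbonate plus Triton X-100. Cells: murine Twitcher 145M-Twi expressing human G270D GALC; qHTS for activators.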
Note: 0% is about no effect; nearly all actives have a fitted effect of over 65% in size.

Chain of UniProt P54803 (P54803 whole entry, looked up): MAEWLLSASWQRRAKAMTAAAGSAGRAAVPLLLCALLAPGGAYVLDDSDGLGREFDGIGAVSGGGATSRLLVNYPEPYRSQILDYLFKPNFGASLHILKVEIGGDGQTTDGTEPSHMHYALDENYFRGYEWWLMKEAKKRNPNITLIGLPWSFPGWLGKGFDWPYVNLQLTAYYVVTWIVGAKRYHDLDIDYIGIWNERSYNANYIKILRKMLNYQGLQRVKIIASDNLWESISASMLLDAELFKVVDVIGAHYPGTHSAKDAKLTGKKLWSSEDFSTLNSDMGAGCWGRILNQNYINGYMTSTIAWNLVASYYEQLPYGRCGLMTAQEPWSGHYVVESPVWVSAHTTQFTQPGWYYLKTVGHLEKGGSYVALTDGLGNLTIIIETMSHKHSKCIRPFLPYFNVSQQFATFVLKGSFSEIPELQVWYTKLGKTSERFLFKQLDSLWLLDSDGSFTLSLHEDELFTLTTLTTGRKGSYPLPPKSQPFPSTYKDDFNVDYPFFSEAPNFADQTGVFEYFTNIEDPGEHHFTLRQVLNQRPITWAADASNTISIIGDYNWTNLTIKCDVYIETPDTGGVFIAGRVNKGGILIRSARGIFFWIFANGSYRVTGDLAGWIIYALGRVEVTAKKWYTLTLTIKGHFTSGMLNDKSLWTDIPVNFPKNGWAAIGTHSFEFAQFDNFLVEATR

activation, inactive:
Cc1ccc(Nc2c3c(nc4nncn24)CCC3)cc1 -6.08%
CCc1ccc(-n2nnc(-c3nc(-c4ccccc4)no3)c2C)cc1 -6.36%
COc1ccc(CCNC(=O)c2ccc3c(c2)N(Cc2cccc(C)c2)C(=O)c2ccccc2S3(=O)=O)cc1OC 5.09%
Cc1ccc(C)c(N(C)C(=O)c2cn(C)c(=O)c3ccccc23)c1 8.08%
CCOC(=O)c1c(Oc2ccc(C(=O)OC)cc2)nnc(-c2ccccc2)c1-c1ccccc1 -15%
Cc1ccc(CCNC(=O)CCc2cn(Cc3ccccc3C)c3ccccc23)cc1 -5.44%
COc1cc(NC(=O)Cn2c(SCc3ccc(F)cc3)nc3cccnc32)cc(OC)c1 -15.9%
Cc1cc(C)cc(-n2cnc3cc(C(=O)NCCc4ccccc4)ccc32)c1 -16.7%
Brc1csc(CN2CCc3nc(Nc4ccccc4)ncc3C2)c1 -5.74%
Cc1cccc(NC(=O)c2cc(S(=O)(=O)N3CCCCC3)c[nH]2)c1C -12.2%
Cc1cccc(Cn2c(SCc3ccc(C(=O)N4CCCCCC4)cc3)nc3ccncc32)c1 -26.7%
COc1cc(CN(C(=O)c2cc3ccccc3oc2=O)C2CCS(=O)(=O)C2)cc(OC)c1OC (stereo not given) -9.66%
O=C(c1cccc(Cl)c1)n1nc(-c2ccco2)nc1NCc1cccs1 -15.9%
O=C(CNC(=O)c1ccccc1Cl)OCc1cc(=O)n2ccsc2n1 -14%
Cc1ccc(CNC(=O)c2ccc3c(c2)nc(C)n3-c2cccc(F)c2)cc1 -6.57%
CCOc1ccc(NC(=O)CSC2=Nc3ccccc3C3=NC(CCC(=O)NCc4ccccc4)C(=O)N23)cc1 (stereo not given) -18.6%
CC(NC(=O)c1ccc2c(c1)CCN2S(C)(=O)=O)c1ccccc1 (stereo not given) -12.5%
Cc1c(Cl)cccc1NC(=O)c1cccc(NC(=O)N2CCSc3ncccc32)c1 -13.4%
CCCCOc1ccc(-c2nn(-c3ccccc3)cc2C2NC(=O)NC(C)=C2C(=O)OCC)cc1 (stereo not given) -27.5%
Cc1cc(C(F)(F)F)n2nc(-c3ccc(Br)cc3)cc2n1 -12.2%
Cc1ccc(C(=O)N2c3ccc(C)cc3C(C)(c3ccccc3)CC2(C)C)cc1 (stereo not given) -10.7%
COc1ccc(OCC(=O)NCc2ccc3c(c2)CCN3C(=O)c2ccccc2)cc1 -26.8%
COc1ccccc1N1CCN(c2ncnc3c2cnn3-c2cc(Cl)ccc2C)CC1 -13.8%
CCc1ccc(C(=O)c2cn(CC(=O)Nc3cccc(OC)c3)c3ccc(OC)cc3c2=O)cc1 -20.8%
Cc1cc2oc(C(=O)Nc3ccc(S(N)(=O)=O)cc3)cc(=O)c2cc1C -18.6%
O=C(NCCc1ccccc1)c1cnc2sc(N3CCCCCC3)nn2c1=O -3.38%
O=C(c1cc2ccccc2oc1=O)N1CCN(c2ccc(Cl)cc2)CC1 -1.76%
CCOC(=O)c1ccc(N2C(=O)c3[nH]nc(-c4ccc(C)cc4)c3C2c2cccc(F)c2)cc1 (stereo not given) -2.79%
Cc1ccc(CSc2nc3ccc(NC(=O)COc4ccccc4)cc3s2)cc1 -15.1%
CC(=O)N[C@@H](CO)C(=O)N[C@@H](CC(=O)O)C(=O)N[C@@H](CCCCN)C(=O)N1CCC[C@H]1C(=O)O (Ac-SDKP-OH) -13.2%
CCc1cccc(NC(=O)CN2C(=O)COc3ccc(S(=O)(=O)Nc4ccccc4)cc32)c1 6.65%
Cc1ccc(NC(=O)c2ccc(-c3cccc(Cl)c3C)o2)cc1 5.85%
CCc1ccc2nc(N(CCN(CC)CC)C(=O)c3ccco3)sc2c1 -17.4%
COc1ccc(OC)c(CNC(=O)c2cc3c(-c4ccc(OC)c(OC)c4)nn(C)c3s2)c1 -17.3%
Cc1ccc(OCc2nc(-c3ccc(C(=O)N4CCN(c5ccccc5F)CC4)cc3)oc2C)cc1 -14.8%
Cn1nc(C(=O)NCc2ccc(Cl)cc2)c2c1-c1ccccc1S(=O)(=O)C2 -9.5%
Cc1cccc(-n2ncc(C(=O)N3CCN(c4ccc(Cl)cc4)CC3)c2C2CCN(C(=O)OC(C)(C)C)CC2)c1 -6.89%
COc1ccc(CNC(=O)Cn2c(SCC(=O)Nc3ccc(OC)cc3)nc3ccccc32)cc1 -12.2%
O=C1OC(C(=O)Nc2cccc(Br)c2)Cc2ccccc21 (stereo not given) 4.21%
Cc1cccc(N2C(=O)N(CC(=O)C(C)(C)C)c3ccccc3S2(=O)=O)c1C -4.53%
Cc1ccc(C)c(NC(=O)CN2CCCN(Cc3cccc(Cl)c3)S2(=O)=O)c1 -8.68%
COc1ccc(Cl)cc1NC(=O)c1cc(S(=O)(=O)NC2CCCCCC2)ccc1F -14.5%
CN(C)S(=O)(=O)N(CC(=O)NCCSCc1ccccc1)c1ccccc1 -0.891%
CCCCCn1c(=O)[nH]c2cc(C(=O)Nc3cc(C)cc(C)c3)ccc2c1=O -6.94%
CCc1ccc(Sc2cc(C(=O)NCc3ccccc3OC)c3ccccc3n2)cc1 7.36%
Cc1cccc(NC(=O)CSc2cn(CC(=O)N3CCCCCC3)c3ccccc23)c1 -3.73%
Cc1cc(OC(C)C(=O)Nc2c(C(=O)c3ccc(F)cc3)oc3ccccc23)ccc1Cl (stereo not given) -8.48%
COC(=O)c1ccc(OCC2c3cc(OC)c(OC)cc3CCN2C(=O)Cc2ccc(OC)cc2)cc1 (stereo not given) -21.8%
CCc1ccc(Sc2cc(C(=O)NCc3cccc(OC)c3)c3ccccc3n2)cc1 -9.79%
COc1ccc(C2NC(=O)N(C)C3=C2C(=O)N(c2cccc(Cl)c2)C3)cc1 (stereo not given) -6.34%
CCn1c(=O)cc(SCC(=O)NCc2ccc(F)cc2Cl)c2ccccc21 -16.6%
CCOc1ccc(N2CC(NC(=O)C(=O)c3c[nH]c4ccccc34)CC2=O)cc1 (stereo not given) 2.73%
COc1ccc(OCC(=O)Nc2nnc(S(=O)(=O)N3CCc4ccccc43)s2)cc1 -3.52%
Cc1cccc(C)c1Nc1c(-c2ccccc2F)nc2cccc(C)n12 -17.6%
CCOC(=O)c1ccccc1NC(=O)C1CCN(c2ncnc3c2nc2n3CCCCC2)CC1 1.69%
CCOc1ccc(C(=O)/C=C/c2cn(CC(O)CN3CCCCCC3)c3ccccc23)cc1 (stereo not given) -17.9%
CCCCN(CC)CCNC(=O)c1c(C)oc2ncnc(N3CCOCC3)c12 -12.7%
COc1ccc2[nH]c(=O)c(CN(C(=O)c3cccc(Cl)c3)c3ccccc3C)cc2c1 -19.1%
CCOc1ccc(C(=O)c2cn(CC(=O)Nc3ccc(OC)cc3)c3cc4c(cc3c2=O)OCCO4)cc1 -9.29%
Cc1ccc2oc3c(c(=O)c2c1)C(c1ccc(O)cc1)N(Cc1ccc2c(c1)OCO2)C3=O (stereo not given) -19.4%
CCC1(C)CC(=O)c2c(ccc3oc(C(=O)NCc4ccccc4)c(C)c23)O1 (stereo not given) -21.8%
C#CCn1c(C2CC(=O)N(c3ccc(OC)cc3)C2)nc2ccccc21 (stereo not given) -29.6%
CN1CCN(C2(CNC(=O)c3ccc(C(C)(C)C)cc3)CCCCC2)CC1 -9.12%
Cc1cc2nnc(SCc3ccc(F)cc3)n2c2ccccc12 -40.3%
CC(C)CCn1c(=O)c2cccnc2n(CC(=O)Nc2ccc(F)cc2)c1=O -16.2%
Cc1ccc(CNC(=O)c2sc3nc[nH]c(=O)c3c2C)cc1 -9.64%
COc1ccc2occ(CC(=O)Nc3ccc(S(=O)(=O)Nc4nccc(C)n4)cc3)c2c1 -21.8%
CC1CN(c2ccc(Cl)cc2)c2nc3c(c(=O)n(CC(=O)O)c(=O)n3C)n2C1 (stereo not given) -14.3%
COc1ccc(-c2[nH]c(-c3cccc(OC)c3)nc2SCC(=O)Nc2ccc3c(c2)OCO3)cc1 -11.8%
COc1ccccc1-c1nc(SCC(=O)c2ccccc2)n[nH]1 -12.2%
COc1cccc(C(=O)NCc2ccc3c(c2)CCN3C(=O)c2ccncc2)c1 -6.3%
COc1ccc(-n2c3c(c(=O)[nH]c2=O)C(NC(=O)c2ccccc2Cl)(C(F)(F)F)C(=O)N3)cc1 (stereo not given) -8.53%
COc1cccc(CNC(=O)Cn2c(=O)ccc3cc(S(=O)(=O)N4CCC(C)CC4)ccc32)c1 -13.4%
Cc1ccc(NC(=O)c2cc(S(=O)(=O)N(C)C3CCCCC3)ccc2F)cc1C -7.46%
COc1ccc(NC(=O)c2ccc(-c3nc(CSc4ccc(C)cc4)c(C)o3)cc2)cc1Cl -8.88%
CCN(c1cccc(C)c1)S(=O)(=O)c1ccc(N2CCCCS2(=O)=O)cc1 -2%
O=C(Nc1ccc(C(=O)N2CCN(c3cccc(Cl)c3)CC2)cc1)c1nsc2ccccc12 -9.18%
CCCCCN1C(C(=O)c2ccccc2)=C(NC(=O)c2ccc(OC)cc2)c2ccccc2S1(=O)=O -9.12%
COc1ccc(CNc2nc(SCc3ccc(Cl)cc3)nc3ccccc23)cc1 -1.35%
Cc1cc(C)c(NC(=O)C(C)n2c(=O)c(C(F)(F)F)nc3ccccc32)c(C)c1 (stereo not given) -14.9%
CCC(=O)N1CCc2cc(S(=O)(=O)NC(C(=O)NCCc3ccccc3)C(C)C)ccc21 (stereo not given) -20.6%
CCc1nnc(NC(=O)c2nc(S(=O)(=O)Cc3ccc(C)cc3)ncc2Cl)s1 -10.9%
Cc1cc(C)cc(OCC(=O)Nc2nc3c(s2)CC(C(C)(C)C)CC3)c1 (stereo not given) -3.09%
CCOC(=O)CC(NC(=O)CCc1c(C)nc2c(c(C)nn2-c2ccc(C)c(C)c2)c1C)c1ccc(C)cc1 (stereo not given) -19.3%
COc1ccc(OC)c2sc(NC(=O)c3ccc(S(=O)(=O)N4CCCC4)cc3)nc12 -9.15%
Cc1cccc(-n2ncc(C(=O)N3CCN(C4CCCCC4)CC3)c2C2CCN(C(=O)OC(C)(C)C)CC2)c1 -10.1%
CCN(CC)CCNC(=O)c1c(C)oc2ncn(C)c(=O)c12 -9.52%
Cc1oc2ccc(O)c(CN(C)Cc3ccccc3)c2c1C(=O)Nc1ccccc1 -8.66%
O=C(CCc1cn(Cc2ccc(F)cc2)c2ccccc12)NCCc1ccc(Cl)cc1 -10.7%
CC(=O)N1CCOc2cc(S(=O)(=O)NC(C)c3ccccc3)c(Cl)cc21 (stereo not given) 4.04%
Cc1cccc(C(=O)Nc2sc3c(c2C(=O)N2CCCCC2)CCC(C)C3)c1 (stereo not given) -16.2%
COc1cccc(NC(=O)CSc2nc3ccc(NC(=O)c4cccs4)cc3s2)c1 -0.45%
Cc1ccc(C(=O)CC2(O)C(=O)N(Cc3ccccc3F)c3ccccc32)cc1 (stereo not given) -12.4%
Cc1ncc([N+](=O)[O-])n1CCO -3.08%
CCOC(=O)c1c(NC(=O)/C=C/c2ccc(C(C)C)cc2)sc2c1CCC2 -8.04%
